This is one part of the list.

The values that follow come from the supplement of paper PMC11417369.

The test has as its system PF3D7_0420300 AP2 domain 1 (GST-tagged). The test is described as follows: gcPBM binding intensity (ln(normalized median fluorescence intensity)); higher = stronger DNA binding. The method in brief: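 In this array assay, P. falciparum DNA-binding domains with a GST tag, expressed in E. coli, were applied for 1 h to primer-extended double-stranded 36-bp intergenic genomic probes and negative controls on an Agilent 4 × 180k array. Bound protein was visualised with Alexa488 anti-GST antibody at 488 nm. Binding intensity is the highest Masliner-normalised natural-log median intensity across replicate spots of either probe orientation.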
For the sequence “TATATTTATATCATCACACATTTTTTTTTTCTTTTT [CACACA_site6150]”, the “gcPBM binding intensity (ln)” value was 9.43.

Turning to “AAGGAAAACAGTAGGTGTACCAAACGTCCTAGGAAC [XGTACX_site3659]”, the “gcPBM binding intensity (ln)” value is 9.58.

Regarding “TAATATATAAATATATGTACATAATTAATAGGATAT [XGTACX_site237]”, the “gcPBM binding intensity (ln)” value amounted to 9.43.

Turning to “GGATATATAAGATACACACACAAATTAAATATAAAA [CACACA_site7333]”, the “gcPBM binding intensity (ln)” value was found to be 9.97.

In the case of “TATTCCTAATTTAAAAGTACATATATATATATATAT [XGTACX_site3008]”, the “gcPBM binding intensity (ln)” value turned out to be 9.09.

Regarding “AAAAAAAAAAAAATTACACACATACCTATAAGAATA [CACACA_site7097]”, the “gcPBM binding intensity (ln)” value was found to be 9.8.

Take “TTTTCTTTTTTCTTTTTAACTCTTACATAATAGGTG [CACACA_negctrl_site642]”: the “gcPBM binding intensity (ln)” value was 9.03.

For the sequence “AATATATGTTAAAATGGTACACAATTATTATATATT [XGTACX_site6407]”, the “gcPBM binding intensity (ln)” value came to 9.43.

Consider “AAAAAAAAAAAAAAGAGTACTTTTTTCACATTCATC [XGTACX_site8795]”, for which the “gcPBM binding intensity (ln)” value amounted to 8.96.

As for “TAAAATGAATAAAATTGTACTTAATAATATTTTAAA [XGTACX_site5532]”, the “gcPBM binding intensity (ln)” value was found to be 9.

In the case of “TTCTTTTAAAAATATATTTTAAGAAAATTTAATTTA [GTGCAC_negctrl_site237]”, the “gcPBM binding intensity (ln)” value worked out at 8.58.

As for “GGATAAGAAAAGAAGTGTACATATATATATATATAT [XGTACX_site8290]”, the “gcPBM binding intensity (ln)” value was determined as 9.04.

As to “TTTATTTTTTGAAACACACACAAAAAAAATGATACA [CACACA_site1881]”, the “gcPBM binding intensity (ln)” value stood at 9.49.

Take CAAAAAAAAAAACGGGTGCTAAATTTTATTTTTTAT: the “gcPBM binding intensity (ln)” value worked out at 9.04.

Consider “AAAAAAAAAATATATATATATATATATATATATATA [GTGCAC_negctrl_site467]”, for which the “gcPBM binding intensity (ln)” value came out at 8.83.

Consider “ATAAAGCACACCGACACACACATATATATATATATA [CACACA_site1047]”, for which the “gcPBM binding intensity (ln)” value was 9.8.

Regarding “TATCATGGTTCGGATTGTACATATATGAATTTTTTT [XGTACX_site7478]”, the “gcPBM binding intensity (ln)” value was determined as 9.41.

For TTTTTTAAATTTAAAGTGCATTATTATATATTTGTA, the “gcPBM binding intensity (ln)” value amounted to 9.2.

For the sequence “CCAGTGTGCACCTTGCGTACATATTAAATTAATTAA [XGTACX_site3729]”, the “gcPBM binding intensity (ln)” value was found to be 9.11.

On to “AAAAAAGAAATAAGGATACACACTATTGATAAAAGT [CACACA_site272]”, for which the “gcPBM binding intensity (ln)” value was found to be 9.84.

Consider “TATATATTATATAAATAAATAAATATATATATTTAT [TGCATGCA_negctrl_site270]”, for which the “gcPBM binding intensity (ln)” value is 8.94.

For “AATGATTTTGATTAACGTACGTACAAATATATATAT [XGTACX_site6604]”, the “gcPBM binding intensity (ln)” value amounted to 9.17.

For “AGACCTATGATATATACACACATATAAATAAATATA [CACACA_site6725]”, the “gcPBM binding intensity (ln)” value was 9.52.

“TTATTAAATATAAATATGTATCTTTTATGTTATATT [CACACA_negctrl_site306]”: the “gcPBM binding intensity (ln)” value came to 9.18.

Turning to “AAAAAAAAAAGACACACACACATAGACCTCCAATAG [CACACA_site7646]”, the “gcPBM binding intensity (ln)” value came out at 9.95.
